Measured values: article PMC4336329 (PLoS ONE, 2015)
About 14,000 (4.5%) of roughly 310,000 compounds showed an effect of 50% or more. Effects have a minus sign here. Some of the results follow.

Each molecule was assayed against human ether-à-go-go-related gene (hERG) potassium channel (human, UniProt Q12809) (assay: primary screen, population patch clamp on CHO cells stably expressing hERG).
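Further: peak tail current of the secondary pulse compared with the same well before compound.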

Chain of human ether-à-go-go-related gene (hERG) potassium channel (Q12809 whole entry, looked up): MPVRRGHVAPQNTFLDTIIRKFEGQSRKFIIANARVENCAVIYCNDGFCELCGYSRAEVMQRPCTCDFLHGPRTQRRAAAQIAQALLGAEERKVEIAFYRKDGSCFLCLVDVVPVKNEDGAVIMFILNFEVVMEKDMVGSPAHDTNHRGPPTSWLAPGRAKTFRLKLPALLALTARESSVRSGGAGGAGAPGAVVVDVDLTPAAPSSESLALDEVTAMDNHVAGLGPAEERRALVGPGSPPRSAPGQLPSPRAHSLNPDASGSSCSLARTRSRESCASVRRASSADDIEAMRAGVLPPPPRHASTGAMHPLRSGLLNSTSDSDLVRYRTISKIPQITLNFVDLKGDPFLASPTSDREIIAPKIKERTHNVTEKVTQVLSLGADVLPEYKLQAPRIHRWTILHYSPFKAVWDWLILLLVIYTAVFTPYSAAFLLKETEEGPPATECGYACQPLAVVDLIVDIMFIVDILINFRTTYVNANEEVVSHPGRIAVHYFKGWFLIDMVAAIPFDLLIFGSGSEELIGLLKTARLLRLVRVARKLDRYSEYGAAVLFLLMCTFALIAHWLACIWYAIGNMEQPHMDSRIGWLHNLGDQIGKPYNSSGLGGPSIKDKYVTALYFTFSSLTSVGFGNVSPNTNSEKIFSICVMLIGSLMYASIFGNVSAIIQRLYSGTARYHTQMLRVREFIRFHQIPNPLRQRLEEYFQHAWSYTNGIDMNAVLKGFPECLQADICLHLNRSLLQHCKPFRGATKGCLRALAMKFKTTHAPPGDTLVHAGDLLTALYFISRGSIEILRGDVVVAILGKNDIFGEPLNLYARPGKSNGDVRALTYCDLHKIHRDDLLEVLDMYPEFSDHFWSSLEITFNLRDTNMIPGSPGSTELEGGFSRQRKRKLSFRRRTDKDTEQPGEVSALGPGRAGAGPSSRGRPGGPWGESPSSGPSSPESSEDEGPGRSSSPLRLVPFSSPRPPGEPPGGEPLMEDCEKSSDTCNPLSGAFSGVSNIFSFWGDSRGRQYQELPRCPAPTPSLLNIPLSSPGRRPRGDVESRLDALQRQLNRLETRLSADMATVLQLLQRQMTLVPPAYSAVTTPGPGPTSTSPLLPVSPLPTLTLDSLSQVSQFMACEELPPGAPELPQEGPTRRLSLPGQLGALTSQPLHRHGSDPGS

SMILES	hERG current change (%, negative = inhibition) at 10uM
CCc1nnc(N/N=C/c2c(Cl)cccc2Cl)n1N	-4.44%
N/C(=N\OC(=O)/C=C/c1ccccc1)c1ccc(Cl)cc1	0.0352%
Cc1ccc(C)n1NC(=O)c1ccccc1Cl	-4.92%
CCCCCCC(O)(c1ccccc1)C(CN1CCOCC1)c1ccccc1.Cl (stereo not drawn)	14.8%
Cc1ccc(-c2csc(N3CCN(S(=O)(=O)c4ccc5c(c4)NC(=O)CO5)CC3)n2)cc1	20.9%
CCOC(=O)c1c(-c2ccccc2)oc2ccc(OC(C)=O)cc12	15.3%
Fc1ccccc1N1CCN(c2cnc3ccccc3n2)CC1	15.4%
COc1ccc(CNC(=O)C(c2ccncc2)N(C(=O)Cc2cccs2)c2cccnc2)cc1 (stereo not drawn)	-16.9%
O=C1CCCc2nc(N3CCN(Cc4ccccc4)CC3)ncc21	9.33%
CCC(C(=O)NC(C)(C)C)N(C(=O)Cn1nnc(-c2cccs2)n1)c1cnc2ccccc2c1 (stereo not drawn)	-13.3%
Cc1nnc(C)n1/N=C/c1ccc(-c2ccccc2Cl)o1	-11.3%
Cc1nn(-c2ccccc2)c2c1C(c1ccc(Cl)cc1)N(c1ccccc1)C(=O)N2 (stereo not drawn)	-64.6%
Cc1cc(C)cc(N(CC(=O)NC2CCCCC2)C(=O)CNC(=O)c2ccco2)c1	-7.74%
CC1CN(C(=O)N[C@@H](Cc2ccccc2)C(=O)O)CC(C)O1 (stereo partly drawn)	6.54%
CC(=O)NC(Cc1cc(C)ccc1C)C(=O)N1CCN(C(=O)c2ccc(Br)cc2)CC1 (stereo not drawn)	-71.8%
CC(C)NC(=O)C1CCN(C2CCN(C(=O)/C=C/c3cccs3)CC2)CC1	-35%
O=[N+]([O-])c1cnccc1Nc1cccc(F)c1	-18.1%
CC(C)(c1ccccc1)c1ccc(OCCN2CCCC2)cc1	-36.2%
O=C(CSc1nnc(CNC(=O)c2ccc(F)cc2)o1)NCc1ccccc1Cl	-10.3%

SMILES	hERG current change (%, negative = inhibition) at 10uM
COc1ccc(C2N(C(C)=O)CCCN2S(=O)(=O)c2ccc(C)cc2)cc1 (stereo not drawn)	-49.6%
COc1cccc(C2CC(c3cccs3)=NN2C(=O)CCC(=O)O)c1OC (stereo not drawn)	10.9%
COc1cc(C(=O)NCC(c2ccccc2)N(C)C)ccc1OCC(=O)N1CCOCC1 (stereo not drawn)	16.2%
NN1C(=O)NC(c2ccccc2)(c2ccccc2)C1=O	5.79%
CCN(c1ccccc1)S(=O)(=O)c1ccc(NC(=O)C(C)(C)C)cc1	-6.32%
Cc1nn(-c2cccc(Cl)c2)c2c1C(c1cccnc1)C(C#N)=C(N)O2 (stereo not drawn)	15.4%
CCn1c(SCC(=O)c2ccc(O)c(O)c2)nnc1-c1ccc(C)cc1	-7.4%
NS(=O)(=O)c1ccc(NC(=O)C(=O)NCCC(=O)O)cc1	-12%
O=C(CNC(=O)c1cccs1)NCC(=O)OCc1ccc(Cl)cc1Cl	-10.2%
O=C(CN(c1ccccc1)S(=O)(=O)c1ccccc1)Nc1ccc(F)cc1	22.6%
O=C(CNC(=O)c1ccccc1)OCCCOC(=O)CNC(=O)c1ccccc1	11.8%
O=C(CCCc1c[nH]c2ccccc12)NCc1ccc2c(c1)OCO2	-9.02%
COc1ccccc1N1CCN(C(=O)C2CCN(S(=O)(=O)c3ccc(F)cc3)CC2)CC1	-25.3%
Cc1ccc(-n2c(-c3ccco3)nc3nc4ccccc4nc32)cc1	-39%
CCCn1nc(NC(=O)C(C)C)c2cc3cc(OC)ccc3nc21	-0.225%
CCC1CN(C(=O)Nc2cccc(C)c2)c2cc(C)ccc2O1 (stereo not drawn)	-5.7%
Cn1c(=O)c2c(ncn2CCC(=O)N/N=C/c2cccnc2)n(C)c1=O	12.3%
Cc1c(C(=O)N2CCN(c3ccccn3)CC2)cccc1[N+](=O)[O-]	-10.6%
Cc1ccc(NC(=O)C2CC(=O)Nc3ncnn32)c(C)c1 (stereo not drawn)	-9.5%

SMILES	hERG current change (%, negative = inhibition) at 10uM
COC(=O)Nc1ccc(S(=O)(=O)N2CCCCC2C(=O)O)cc1 (stereo not drawn)	21.5%
Cc1cc(Br)ccc1SCC(=O)Nc1cccnc1	14.1%
Cc1cc(CNC(=O)COc2ccc(C#N)cc2)c2ccccc2n1	-47.2%
N#CC(c1nc2ccccc2nc1N1CCCC1)S(=O)(=O)c1ccccc1 (stereo not drawn)	-14.9%
COc1ccc(NC2CCCN(C(=O)C3(C)CCCCC3)C2)cc1 (stereo not drawn)	1.58%
CCOc1ccc(NC(=O)CSc2nccn2C)cc1	7.71%
O=C(NCCF)C1Nc2ccc(OC(F)(F)F)cc2C2C=CCC12 (stereo not drawn)	-11.8%
Cc1ccc(C)c(-c2csc(N/N=C/c3ccco3)n2)c1	14.2%
OCCCc1cn(CC2CCCCC2)nn1	2.61%
CC(C)(C)c1cc[n+](-c2[nH]c(=O)sc2/C=N/N=C(\[O-])c2cccnc2)cc1	26.2%
CC1(C)CC2(CC(c3ccccc3)Oc3cc(O)ccc32)NC(=O)N1 (stereo not drawn)	3.54%
Cc1ccc(OCCn2cnc3c(N)ncnc32)cc1	-14.6%
Oc1ccc(N2CCN(c3ncnc4sc5c(c34)CCC5)CC2)cc1	-7.35%
COc1ccc2c(c1OC)C(=O)N1c3ccccc3COC21 (stereo not drawn)	6.86%
CCCCC(=O)Nc1ccc(C2C(=O)c3ccccc3C2=O)cc1	17.1%
COc1cccc(/C=N/NC(=O)c2ccc(OCc3cccc(Br)c3)cc2)c1	-18%
Cc1cc(OC(C)C(=O)NCC(O)c2ccccc2)c2c3c(c(=O)oc2c1)CCC3 (stereo not drawn)	-9.18%
O=C(Cc1ccccc1)Nc1nnc(-c2ccco2)s1	11.5%
CCCCC(=O)Nc1nnc(CCc2ccccc2)s1	-3.92%
